Our source for the survival values is PubChem BioAssay AID463173 (ICCB-Longwood Screening Facility, Harvard Medical School, 2010).

Molecules are shown by their SMILES. The campaign covered roughly 52,000 compounds. About 1,700 (3.3%) were called active. No stated cut-off is given here; in the data, active means survival mostly below about 52% (no sharp cut-off); inactive means mostly above about 56%. Some of the results follow.

This experiment deals with Wild type. In words: S. aureus survival, RN4220 and DeltatarO strains – OD600, teichoic acid synthesis inhibitors, primary screen (AID 463173). As to conditions: S. aureus RN4220 wild type/DeltatarO growth, OD600, 18 h, hits give low values, screened at 18.75 µg/mL (by protocol).
With `Cc1ccc(Nc2c(-c3ccncc3)nc3ccc(C)cn23)cc1`, the survival is inactive: 81%.
For `CCOC(=O)C1CCN(c2ncnc3c2nnn3C)CC1` the value was active: 10%; for `Cc1ccc(CN(C(=O)COc2cccc([N+](=O)[O-])c2)c2ccccn2)cc1`, inactive: 68%.
For `CCCS(=O)(=O)c1ncc(Cl)c(C(=O)Nc2scc(-c3ccccc3)c2C(=O)OCC)n1` the value was active: 4%; for `Cc1cc(C)cc(N2CCn3c2nc2c3c(=O)n(Cc3ccc(Cl)cc3)c(=O)n2C)c1`, inactive: 97%.
For `CC(C)c1ccc(CNc2nc(-c3ccco3)nn2S(=O)(=O)c2ccc3ccccc3c2)cc1` the value was inactive: 115%; for `C#CCN1C(=O)C(O)(CC(=O)c2ccccc2)c2ccccc21` (stereo not given), inactive: 115%.
For `O=S(=O)(c1ccccc1)c1nc(-c2ccc(Cl)cc2Cl)oc1N1CCCCCC1`, the survival is inactive: 61%.
In the case of `COc1ccc(CNC(=O)Cn2nnc(-c3ccc(S(C)(=O)=O)cc3)n2)cc1`, the survival was inactive: 84%.
The figure for `COc1cccc2c1cc1c(=O)n(CC(=O)N3CCN(c4cc(Cl)ccc4C)CC3)nc(C)n12` is inactive: 78%; for `CCCCNC(=O)C1CCCN(S(=O)(=O)c2ccc(-n3cnnn3)cc2)C1` (stereo not given) it is inactive: 106%.
In the case of `COc1cccc(-c2cc(C(=O)Nc3cc(OC)c(OC)c(OC)c3)on2)c1`, the survival was inactive: 69%.
For `O=C(CCCn1c(=O)c2cccn2c2cccnc21)NCc1ccc(F)cc1` the value was inactive: 115%; for `CCC1CCCCN1CC(=O)N1CCCc2c1c(=O)oc1ccc(OCc3ccccc3)cc21` (stereo not given), active: 3%.
The figure for `COc1ccc(-c2nc(Cn3c(SCc4ccc(C)cc4)nc4cccnc43)c(C)o2)cc1OC` is inactive: 132%; for `COc1ccc(CNC(=O)CCC(=O)N2CCSc3ccccc32)cc1` it is inactive: 101%; for `CCOc1ccc(-n2c(C)nc3cc(C(=O)NCCC4=CCCCC4)ccc32)cc1` it is active: -6%.
Take `COc1ccc(C(=O)CC2(O)C(=O)N(Cc3ccccc3Cl)c3ccccc32)cc1` (stereo not given): the survival is inactive: 68%.
For `COc1ccc(C2NC(=O)CS2)cc1` (stereo not given) the value was inactive: 103%; for `CCN1CCN(c2ccc(NS(=O)(=O)c3c(C)nc4sccn4c3=O)cc2Cl)CC1`, inactive: 95%.
The figure for `COc1ccc(-c2nnc(SCC(=O)Nc3ccc(Cl)cc3)s2)cc1` is inactive: 69%.
On to `CC1=C(C#N)C(c2cccc(Oc3ccccc3)c2)C2=C(CCCC2=O)N1` (stereo not given), for which the survival was inactive: 132%.
For `CCOC(=O)c1ccc(NC(=O)C2=C(C)Nc3nc(SCc4ccc(Cl)cc4)nn3C2c2ccc(OC)cc2)cc1` (stereo not given) the value was inactive: 92%; for `COc1ccc(-c2nc3sc(CCNC(=O)c4cc(Cl)ccc4OC)c(C)n3n2)cc1`, inactive: 73%.
The figure for `C=CCNC(=O)c1ccc(N2C(=O)c3ccccc3C2=O)cc1` is inactive: 104%.
